The record followed here is paper PMC8866405.

Chains of the proteins cited; added tags and fusions are not shown.
UniProt Q12778: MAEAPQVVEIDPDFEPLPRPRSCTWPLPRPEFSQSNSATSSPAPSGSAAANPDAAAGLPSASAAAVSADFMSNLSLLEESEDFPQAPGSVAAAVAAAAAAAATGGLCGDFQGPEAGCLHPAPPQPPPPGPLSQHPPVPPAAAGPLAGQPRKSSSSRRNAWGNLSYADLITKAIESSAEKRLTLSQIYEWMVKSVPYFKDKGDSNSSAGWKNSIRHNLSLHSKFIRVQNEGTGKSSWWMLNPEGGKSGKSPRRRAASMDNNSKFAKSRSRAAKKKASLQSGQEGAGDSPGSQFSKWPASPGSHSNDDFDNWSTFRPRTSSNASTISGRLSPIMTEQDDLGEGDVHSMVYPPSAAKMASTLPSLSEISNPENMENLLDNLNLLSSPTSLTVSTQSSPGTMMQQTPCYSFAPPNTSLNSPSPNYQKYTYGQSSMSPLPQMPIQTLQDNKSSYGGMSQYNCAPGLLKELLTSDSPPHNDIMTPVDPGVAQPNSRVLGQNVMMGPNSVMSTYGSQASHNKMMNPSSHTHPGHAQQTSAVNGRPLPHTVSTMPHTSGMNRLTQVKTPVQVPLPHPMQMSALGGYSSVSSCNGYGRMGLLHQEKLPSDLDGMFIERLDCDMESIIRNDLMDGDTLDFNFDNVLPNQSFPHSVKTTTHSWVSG
UniProt Q9R1E0: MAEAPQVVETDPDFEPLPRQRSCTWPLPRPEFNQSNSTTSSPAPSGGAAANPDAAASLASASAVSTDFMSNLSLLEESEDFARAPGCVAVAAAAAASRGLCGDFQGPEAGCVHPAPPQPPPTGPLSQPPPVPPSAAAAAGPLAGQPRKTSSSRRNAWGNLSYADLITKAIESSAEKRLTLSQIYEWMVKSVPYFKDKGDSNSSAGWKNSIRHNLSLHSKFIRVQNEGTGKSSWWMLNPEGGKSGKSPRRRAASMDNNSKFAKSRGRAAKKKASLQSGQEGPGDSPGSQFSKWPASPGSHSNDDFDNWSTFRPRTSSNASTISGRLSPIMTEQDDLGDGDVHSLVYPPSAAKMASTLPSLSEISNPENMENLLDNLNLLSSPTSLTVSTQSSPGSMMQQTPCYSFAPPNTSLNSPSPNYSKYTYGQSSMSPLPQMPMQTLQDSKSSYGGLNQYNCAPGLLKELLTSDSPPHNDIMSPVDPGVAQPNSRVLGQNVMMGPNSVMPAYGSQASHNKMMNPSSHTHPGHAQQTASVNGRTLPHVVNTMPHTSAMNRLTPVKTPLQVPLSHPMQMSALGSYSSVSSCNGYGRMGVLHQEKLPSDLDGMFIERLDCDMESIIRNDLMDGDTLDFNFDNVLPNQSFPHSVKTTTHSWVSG

No constants are given. Whether binding was seen depends on the method and setting. Binding seen in cells or lysates may run through a third protein. Some entries that bind do so weakly or less than the wild type.

The target of one assay is V5-tagged Foxo1 (UniProt Q12778). Nature of the assay: co-IP; HEK293T cells transiently co-transfected with the plasmids, lysed after 48 h in IP buffer (50 mmol/L Tris-HCl pH 8.0, 150 mmol/L NaCl, 0.5% sodium deoxycholate, 1% NP-40); antibodies overnight at 4 °C, Protein A/G-agarose; 200 μg whole-cell extract; Fig. 6j with and without Kindlin-2 overexpression.
Assay [1] addresses V5-tagged Foxo1 overexpressed in HepG2 cells (UniProt Q12778). Briefly: co-IP; HepG2 cells overexpressing V5-tagged Foxo1; IP with anti-V5 antibody, blot for Kindlin-2.
In assay [2] the target is Foxo1, endogenous in HepG2 cells (human (endogenous in HepG2)) (UniProt Q12778). Briefly: co-IP; endogenous proteins in HepG2 cell lysates, IP and IB with the indicated antibodies; Fig. 6i in cells infected with lentiviruses expressing Kindlin-2 shRNA (sh-K2 #1, #2) or control shRNA (sh-NC).
Assay [3] deals with Foxo1, endogenous in mouse liver (mouse (endogenous in liver)) (UniProt Q9R1E0). Nature of the assay: co-IP; protein extracts from livers of db/db and HFD-fed mice, IP and IB.

Turning to “Flag-tagged Kindlin-2, full-length (FL) (from UniProt Q96AC1 1-680)”, in the assay with V5-tagged Foxo1, the binding entry is “binds”.

For the molecule “Kindlin-2 with deletion of aa 1-569 (C-terminal region aa 570-680) (from UniProt Q96AC1 570-680) (domain or fragment)”, the binding result with V5-tagged Foxo1 is reported as “binds”.

Regarding “Kindlin-2 with deletion of aa 240-680 (from UniProt Q96AC1 1-239) (domain or fragment)”, the binding result with V5-tagged Foxo1 is “no binding”.

Regarding “Kindlin-2 with deletion of aa 570-680 (from UniProt Q96AC1 1-569) (domain or fragment)”, in the assay with V5-tagged Foxo1, the binding result is “no binding”.

As to “Kindlin-2, endogenous in HepG2 cells (from UniProt Q96AC1 1-680)”, the binding result in assay [1] and in assay [2] was “binds” each time.

B1: Kindlin-2, endogenous in mouse liver (protein, UniProt Q8CIB5 1-680)
chain: MALDGIRMPDGCYADGTWELSVHVTDLNRDVTLRVTGEVHIGGVMLKLVEKLDVKKDWSDHALWWEKKRTWLLKTHWTLDKCGIQADAKLQFTPQHKLLRLQLPNMKYVKVKVNFSDRVFKAVSDICKTFNIRHPEELSLLKKPRDPTKKKKKKLDDQSEDEALELEGPLIMPGSGSIYSSPGLYSKTMTPTYDAHDGSPLSPTSAWFGDSALSEGNPGILAVSQPVTSPEILAKMFKPQALLDKAKTNQGWLDSSRSLMEQDVKENEALLLRFKYYSFFDLNPKYDAIRINQLYEQAKWALLLEEIECTEEEMMMFAALQYHINKLSIMTSENHLNNSDKEVDEVDAALSDLEITLEGGKTSTILGDITSIPELADYIKVFKPKKLTLKGYKQYWCTFKDTSISCYKSREESSGTPAHQLNLRGCEVTPDVNISGQKFNIKLLIPVAEGMNEIWLRCDNEKQYAHWMAACRLASKGKTMADSSYNLEVQNILSFLKMQHLNPDPQLIPDQITTDVNPECLVSPRYLKKYKSKQITARILEAHQNVAQMSLIEAKMRFIQAWQSLPEFGITHFIARFQGGKREELIGIAYNRLIRMDASTGDAIKTWRFSNMKQWNVNWEIKMVTVEFADEVRLSFICTEVDCKVVHEFIGGYIFLSTRAKDQNESLDEEMFYKLTSGWV
Take B1: the binding result in assay [3] was “binds”.
